# Reference: PubChem BioAssay AID686971 (National Center for Advancing Translational Sciences (NCATS), 2013)
# Hit rate of the full screen: of about 360,000 compounds, about 7,500 (2.1%) were called active. This list was built around the results that the source calls inconclusive (neither active nor inactive); the mix of calls is not that of the screen. The call rests on the fitted dose curve; in most records, active means well fitted cell-killing curve with a large enough effect; inconclusive means small, poorly fitted or top-dose-only effect, or effect the other way, or another doubt; inactive means no such curve, though single readings can be large or run the other way. No potency is given beside an inconclusive call; the fits are too rough.
# Assay: qHTS for induction of synthetic lethality in tumor cells producing 2HG: qHTS for the HT-1080-IDH1KD cell line;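 on activity, negative = toxicity: 0% = DMSO wells and -100% = cell-free medium wells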
# Settings: HT-1080 IDH1 knockdown viability, ATP luminescence, 48 h; activity, negative = toxicity: at 46.1 µM (top of the series) unless noted
# Summary of the method: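 Cytotoxicity counter-line: IDH1KD HT-1080, 48 h, CellTiter-Glo. Curves classed by r2, magnitude and activity.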
# Potency means the concentration at half of the fitted maximal effect; tags describe the fitted curve by direction and shape.
SMILES,Potency,"activity, negative = toxicity"
Cc1ccc(S(=O)(=O)c2ccc([N+](=O)[O-])cn2)cc1,active: 4.61 µM,–
CCN1CCN(C(=S)Nc2cccc(C(F)(F)F)c2)CC1,inactive,–
O=C(NCc1ccccc1)C(c1ccncc1)N(C(=O)c1csnn1)c1ccccc1F (stereo not drawn),inactive,–
CC(=O)OC1CC2(C)/C(=N\O)CCC2C2CCc3cc(O)ccc3C12 (stereo not drawn),inactive,–
O=C(NCc1cccc(C(F)(F)F)c1)c1[nH]c(C(F)(F)F)nc1-c1ccccc1,"inconclusive [cytotoxic, single point]",–
Cc1nn(-c2ccccc2)c(C)c1C(=O)NCc1ccccc1F,inactive,–
O=C(N/N=C/c1cccn1-c1ccccc1)c1ccncc1,inactive,–
Cc1nn(Cc2ccc(Cl)c(Cl)c2)c(C)c1NC(=O)c1cc(CC(C)C)on1,"inconclusive [cytotoxic, single point]",–
COc1ccc(/C=N/NC(=O)c2cccc(C(=O)N/N=C/c3ccc(OC)c(OC)c3)n2)cc1OC,inactive,–
COc1cc(C(=O)NC(=S)NNC(=O)c2ccc3c(c2)OCO3)cc(OC)c1OC,"inconclusive [cytotoxic, partial curve]",–
Cc1cc(C)cc(N(C(=O)c2ccccn2)C(C(=O)NC2CCCCC2)c2cccs2)c1 (stereo not drawn),"inconclusive [cytotoxic, single point]",–
CCCNC(=O)C(Cc1ccc(C(F)(F)F)cc1)NC(=O)c1ccc(C#N)cc1 (stereo not drawn),inactive,–
Cc1cc(C(=O)CSc2nnnn2C)c(C)n1-c1cccc(F)c1,"inconclusive [cytotoxic, single point]",–
Cc1cccc(-n2ncc3c2CCCC3NC(=O)CN2CCOC2=O)c1C (stereo not drawn),inactive,–
O=[N+]([O-])c1cc(-c2cnc3ccccc3n2)ccc1Oc1ccc(Br)cc1,inactive,–
COc1ccccc1NC(=O)COc1cc(Br)c(CNCCCN2CCOCC2)cc1OC,"inconclusive [cytotoxic, single point]",–
Cc1nc2ccccc2c(=O)n1/N=C/c1ccc(O)cc1O,"inconclusive [cytotoxic, single point]",–
CC(C(=O)c1ccc(-c2ccccc2)cc1)[n+]1ccccc1 (stereo not drawn),"inconclusive [cytotoxic, single point]",–
CC1CCN(S(=O)(=O)c2ccc(NC(=O)Cn3nnc(-c4ccccc4)n3)cc2)CC1,"inconclusive [cytotoxic, partial curve]",–
CCC1CCCCN1CCCNC(=O)c1ccc2nc(N3CCCCC3)sc2c1 (stereo not drawn),"inconclusive [cytotoxic, single point]",–
CC(C)CC(=O)NC(=S)NNC(=O)c1ccc(NC(=O)C2CCCCC2)cc1,"inconclusive [cytotoxic, partial curve]",–
CC[C@H](C)[C@@H]1NC(=O)[C@H]([C@@H](C)CC)NC(=O)[C@@H](CC(C)C)NC(=O)[C@H](Cc2ccccc2)NC(=O)[C@H](Cc2ccccc2)NC(=O)[C@@H]2CCCN2C(=O)[C@@H]2CCCN2C(=O)[C@H](C(C)C)NC(=O)[C@H](CC(C)C)NC1=O,"inconclusive [cytotoxic, single point]",–

SMILES,Potency,"activity, negative = toxicity"
CCOC(=O)[C@]12CCCC=C1N(Cc1ccc(Cl)cc1Cl)C(=O)[C@H](CC(=O)NCC1CCCCC1)C2,"inconclusive [cytotoxic, single point]",–
Cc1ccc(NC(=S)Nc2ccc(OC(F)F)c(Cl)c2)cc1F,"inconclusive [cytotoxic, single point]",–
Cn1c(SCC(=O)OCC(=O)c2ccccc2)nnc1-c1cccs1,inactive,–
CO/N=C/C(=N\Nc1ccc(C)cc1)C(=O)c1ccc(OC)cc1,active: 2.91 µM,–
COc1ccc(NS(=O)(=O)c2ccc(N3CCOCC3)c(NC(=O)c3cccc(F)c3)c2)cc1,"inconclusive [cytotoxic, single point]",–
O=C(CN(C(=O)CCC(=O)Nc1nccs1)c1ccc(F)cc1)NCc1ccc(F)cc1,inactive,–
Cc1ccc(NC2=Nc3ccccc3N3C2=Nc2c(c(C)nn2-c2ccccc2)C3c2ccc(O)c(O)c2)cc1 (stereo not drawn),"inconclusive [cytotoxic, single point]",–
CN(C)CCCN(C(=O)/C=C/c1cccs1)c1nc2ccc(F)cc2s1,"inconclusive [cytotoxic, single point]",–
O=C(N/N=C/c1cccc(F)c1)c1cc(-c2ccco2)nc2ccccc12,active: 16.4 µM,–
COc1cc2cc3c(N)c(C(=O)Nc4sc(C)c(C)c4C#N)sc3nc2cc1OC,"inconclusive [cytotoxic, single point]",–
CCn1c(SCC(=O)Nc2cc(C)c(Cl)cc2OC)nnc1-c1ccco1,"inconclusive [cytotoxic, single point]",–
COC(=O)c1[nH]c2c(c1C)C(=O)CC(c1cccs1)C2 (stereo not drawn),active: 1.03 µM,–
CC(=O)NC(C)(c1ccccc1)c1nc(-c2ccc(N(C)C)cc2)cs1 (stereo not drawn),"inconclusive [cytotoxic, single point]",–
CN(Cc1ccccc1)C(=O)COC(=O)c1cc(NS(=O)(=O)c2cccs2)ccc1O,"inconclusive [cytotoxic, single point]",–
O=C(Nc1ccccc1Cc1ccccc1)c1ccccc1NS(=O)(=O)c1ccc(Cl)s1,"inconclusive [cytotoxic, partial curve]",–
Cc1cc(C)c(C#N)c(SCS(=O)Cc2ccccc2)n1 (stereo not drawn),–,inconclusive: 32.4%
COc1ccc(-n2nc3cc(N)c(Br)cc3n2)cc1,"inconclusive [cytotoxic, partial curve]",–
COc1ccc(/C=N/N2CCN(c3ccc(Cl)cc3)CC2)cc1,"inconclusive [rising, partial curve]",–
COC(=O)[C@@]12CCCCN1[C@H](c1ccc(-c3cc(C(C)=O)cs3)cc1)[C@H]1C(=O)N(C)C(=O)[C@H]12,inactive,–
COCCN1C(=O)CSCC1(C)C(=O)NC(C)C (stereo not drawn),inactive,–
Cc1ccccc1OCc1nc2ccccc2c(=O)n1/N=C/c1cn[nH]c1-c1ccccc1,"inconclusive [cytotoxic, single point]",–
